About 2,200 (0.71%) of roughly 310,000 compounds showed an effect of 50% or more. Effects have a minus sign here. The list shows a part of the results.

The target in the assay is human ether-à-go-go-related gene (hERG) potassium channel (human, UniProt Q12809). Put plainly: primary screen, population patch clamp on CHO cells stably expressing hERG.
Chain of human ether-à-go-go-related gene (hERG) potassium channel (Q12809 whole entry, looked up): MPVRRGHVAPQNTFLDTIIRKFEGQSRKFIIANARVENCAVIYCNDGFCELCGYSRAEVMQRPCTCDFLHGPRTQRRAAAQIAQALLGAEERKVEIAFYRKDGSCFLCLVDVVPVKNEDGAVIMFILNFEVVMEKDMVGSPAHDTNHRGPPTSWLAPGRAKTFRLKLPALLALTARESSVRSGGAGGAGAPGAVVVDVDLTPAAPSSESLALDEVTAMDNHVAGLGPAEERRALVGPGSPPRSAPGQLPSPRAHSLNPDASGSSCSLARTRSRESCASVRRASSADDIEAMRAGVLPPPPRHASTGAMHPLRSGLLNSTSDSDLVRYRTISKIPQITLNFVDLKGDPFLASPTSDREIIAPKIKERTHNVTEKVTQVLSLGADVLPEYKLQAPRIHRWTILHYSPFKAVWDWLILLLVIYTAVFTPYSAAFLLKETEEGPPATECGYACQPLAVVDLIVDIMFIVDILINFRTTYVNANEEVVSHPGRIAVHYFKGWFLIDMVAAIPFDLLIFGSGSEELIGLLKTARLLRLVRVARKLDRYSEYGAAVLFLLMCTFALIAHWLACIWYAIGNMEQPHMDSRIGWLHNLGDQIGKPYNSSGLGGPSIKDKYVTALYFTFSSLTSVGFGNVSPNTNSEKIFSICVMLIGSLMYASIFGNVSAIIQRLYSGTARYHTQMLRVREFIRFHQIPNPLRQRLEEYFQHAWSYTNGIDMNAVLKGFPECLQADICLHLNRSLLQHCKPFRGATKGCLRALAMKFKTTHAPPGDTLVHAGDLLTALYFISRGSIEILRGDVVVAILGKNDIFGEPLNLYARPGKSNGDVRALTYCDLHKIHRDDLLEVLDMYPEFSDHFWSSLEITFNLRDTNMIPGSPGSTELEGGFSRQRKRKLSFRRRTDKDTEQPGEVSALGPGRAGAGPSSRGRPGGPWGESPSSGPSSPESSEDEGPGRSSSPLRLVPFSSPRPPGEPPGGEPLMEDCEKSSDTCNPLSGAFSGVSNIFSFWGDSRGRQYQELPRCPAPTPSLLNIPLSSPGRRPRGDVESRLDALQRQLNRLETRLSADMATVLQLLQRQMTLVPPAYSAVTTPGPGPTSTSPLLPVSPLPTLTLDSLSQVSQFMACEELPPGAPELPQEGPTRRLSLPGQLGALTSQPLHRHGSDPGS
Regarding `COc1ccc(N2C(=O)CN=C2Nc2cccc(C)c2C)cc1OC`, the “hERG current change (%, negative = inhibition) at 1uM” value came to 5.77%. The figure for `COc1c2n(C)ccc3c-2n(c(=O)c1=O)c1ccccc31` is 12.6%; for `O=C(O)CC(CC(=O)N1CCN(C(=O)c2ccco2)CC1)c1ccccc1` (stereo not shown) it is 11.4%; for `CC(C)(C)NC(=O)CN(C(=O)c1ccc(Cl)nc1)c1cccc2ccccc12` it is -3.75%. The figure for `COc1ccc(-c2sc(Nc3ccccc3)n[n+]2C)c(C)c1C.[Cl-]` is 7.26%; for `Clc1ccc2nc(CSCc3ccccc3)cn2c1` it is -1.33%; for `O=C(NCc1ccco1)C(=S)N1CCCC1` it is 12.6%. The figure for `COc1ccc(C(=O)Nc2cccc3cccnc23)cc1OC` is 11%; for `CCOC(=O)c1sc(NC(=O)c2ccco2)nc1C` it is 7.75%; for `O=C(O)c1csc(-c2ccccc2)n1` it is 13.9%. `CCN(CC)CC.CCOc1ccccc1-n1c(=S)sc2c(=O)n(-c3ccccc3)c(=S)[nH]c21`: the “hERG current change (%, negative = inhibition) at 1uM” value turned out to be 23.7%. As for `CCCN(Cc1nc2cc(Cl)ccc2c(=O)[nH]1)C(=O)c1ccc(S(=O)(=O)N2CCCC2)cc1`, the figure is -14.8%; as for `COC(=O)c1[nH]c2ccc(Br)cc2c1NC(=O)C(C)N1CCN(C2CCCCC2)CC1` (stereo not shown), -82.6%; as for `CCN(CC(=O)Nc1ccc(NC(C)=O)cc1)CC(=O)Nc1ccc(F)c(Cl)c1`, 6.79%. `COc1ccc(C(=O)OCC(=O)NCCCc2ccccc2)cc1[N+](=O)[O-]`: the “hERG current change (%, negative = inhibition) at 1uM” value was 4.87%.

For `Cc1c(Cl)cccc1NC(=O)Cc1cccs1`, the “hERG current change (%, negative = inhibition) at 1uM” value was determined as 12.8%.

`Cc1ccc(-n2ncc(C(=O)Nc3cc(Cl)ccc3Cl)c2C2CCNCC2)cc1.Cl`: the “hERG current change (%, negative = inhibition) at 1uM” value is given as -27.6%. On to `Cc1ccc(-c2nc3[nH]c(=O)cc(NC(=O)c4cccs4)n3n2)cc1`, for which the “hERG current change (%, negative = inhibition) at 1uM” value worked out at 3.92%. `CCCCNc1cc(C(=O)O)cc(S(N)(=O)=O)c1Oc1ccccc1`: the “hERG current change (%, negative = inhibition) at 1uM” value is on record as 4.77%. With `CCOC(=O)Cn1nc(/C=C/c2ccc(C)cc2)ccc1=O`, the “hERG current change (%, negative = inhibition) at 1uM” value was determined as 11.5%. As to `CC(C)/C=C/CN1CCN(CCCc2ccccc2)C(CCO)C1` (stereo not shown), the “hERG current change (%, negative = inhibition) at 1uM” value was -35.7%. As for `O=C(c1ccco1)N1CCCN(Cc2cn[nH]c2-c2ccc(-c3ccccc3)cc2)CC1`, the “hERG current change (%, negative = inhibition) at 1uM” value is -7.7%.

With `CC(C)(C)NC(=O)C(c1ccc(F)cc1)N(C(=O)CCC(=O)Nc1ccccn1)C1CCCC1` (stereo not shown), the “hERG current change (%, negative = inhibition) at 1uM” value is 4.59%. Consider `CCCCn1nc(NC(=O)CCC)c2cc3cc(OC)ccc3nc21`, for which the “hERG current change (%, negative = inhibition) at 1uM” value is reported as 13.4%. The figure for `Cc1ccc(C)c(OCC(=O)Nc2c(C)n(C)n(-c3ccccc3)c2=O)c1` is 12.2%; for `Cc1ccc(C(=O)N2CCCC(N3CCN(c4ccccc4C)CC3)C2)c(=O)[nH]1` (stereo not shown) it is 10.5%. As for `O=C(C1=C(O)C(=O)N(Cc2ccco2)C1c1cccc(O)c1)c1ccco1` (stereo not shown), the “hERG current change (%, negative = inhibition) at 1uM” value came out at 14%. Regarding `COc1cc(C(=O)NCCN2C(=O)S/C(=C\c3ccc(F)cc3)C2=O)ccc1OCC(=O)N1CCOCC1`, the “hERG current change (%, negative = inhibition) at 1uM” value is 12.5%. The figure for `Cc1c(C(c2cccc(Br)c2)c2c(C)n(C)n(-c3ccccc3)c2=O)c(=O)n(-c2ccccc2)n1C.Cl` is 10.6%. As for `Cc1ccc(S(=O)(=O)N/N=C/c2ccc(OS(=O)(=O)c3ccc(C)c([N+](=O)[O-])c3)cc2)cc1`, the figure is 8.08%; as for `CC(NC(=O)c1cccs1)c1ccc(Cl)cc1` (stereo not shown), -0.472%. As for `O=C(CCNc1ccc(F)c(Cl)c1)c1ccco1`, the figure is 8.86%; as for `NS(=O)(=O)c1ccc(CNC(=O)C(Cc2ccccc2)NS(=O)(=O)c2ccccc2F)cc1` (stereo not shown), 14.5%; as for `O=C(NC1CCCCC1)[C@@H]1CC=C[C@@H]2CCN(C3CCCCC3)C(=O)[C@@H]21`, 11.3%. Consider `COc1ccc2nc(SCC(=O)N3CCCCC3)c(C#N)cc2c1`, for which the “hERG current change (%, negative = inhibition) at 1uM” value was 3.59%.

For the compound `COc1ccccc1C(=O)N1CCN(c2ccccn2)CC1`, the “hERG current change (%, negative = inhibition) at 1uM” value was -17.2%. Turning to `Cc1ccc(N(C(=O)c2ccc(S(=O)(=O)N3CCOCC3)cc2)C2C=CS(=O)(=O)C2)cc1` (stereo not shown), the “hERG current change (%, negative = inhibition) at 1uM” value is -3.04%. For the compound `CCOC(=O)c1c(-c2ccccc2)csc1NC(=O)CSc1nncs1`, the “hERG current change (%, negative = inhibition) at 1uM” value came to 4.2%.

Regarding `CCSc1nnc(NS(=O)(=O)c2ccc(OC)cc2)s1`, the “hERG current change (%, negative = inhibition) at 1uM” value was 4.13%. As for `FC(F)(F)c1cc(Cl)c2nnc(-c3cccnc3)n2c1`, the figure is 14.5%; as for `O=C(Cc1cccs1)Nc1cccc(-c2ccc3nncn3n2)c1`, 0.391%; as for `O=S(=O)(NC1c2cccc3cccc(c23)C1N1CCNCC1)c1ccccc1` (stereo not shown), 8.75%. As for `COC(=O)c1ccccc1NC(=O)COc1ccccc1[N+](=O)[O-]`, the figure is 0.818%.

As for `COCCNC(=O)c1cc2c(=O)n3cccc(C)c3nc2n1C`, the “hERG current change (%, negative = inhibition) at 1uM” value is recorded as 22.6%. Regarding `COc1cc(CNc2ccc3c(c2)CCC3)cc(OC)c1O`, the “hERG current change (%, negative = inhibition) at 1uM” value worked out at 10.2%.

For the compound `Nn1cnc2c([nH]c3ccccc32)c1=O`, the “hERG current change (%, negative = inhibition) at 1uM” value is given as -3.75%. As for `COC(=O)c1c(F)c(F)c(NCCO)c(F)c1F`, the figure is -4.7%.

Turning to `CCOC(=O)N1CCC(NC(=O)C2=CCN(S(=O)(=O)c3ccc(OC)cc3)CC2)CC1`, the “hERG current change (%, negative = inhibition) at 1uM” value is given as -3.7%. On to `CCOC(=O)c1ccc(N2C(=O)C3C(C2=O)C(C(=O)c2ccc(Cl)cc2)N2CCCC32)cc1` (stereo not shown), for which the “hERG current change (%, negative = inhibition) at 1uM” value is given as 15.5%. Take `COc1ccc(NS(=O)(=O)c2cc(NC(=O)c3cccnc3Cl)ccc2N2CCCC2)cc1`: the “hERG current change (%, negative = inhibition) at 1uM” value was 10.2%.

`Cc1ccc(NC(=O)c2cc(-c3ccc4c(c3)OCO4)on2)cc1`: the “hERG current change (%, negative = inhibition) at 1uM” value came out at 15.6%. Consider `CC(C)NC1CS(=O)(=O)CC1O` (stereo not shown), for which the “hERG current change (%, negative = inhibition) at 1uM” value worked out at 3.4%. The figure for `CCOc1ccc(-c2c(C(=O)N/N=C/C3CCCCC3)nnn2-c2nonc2N)cc1` is 12.5%. `CCN(CC)S(=O)(=O)c1ccc(C(=O)N2CCN=C2SC)cc1`: the “hERG current change (%, negative = inhibition) at 1uM” value was 15.8%. As for `O=C(NC(=S)N1CCc2ccccc21)c1ccccc1Br`, the figure is 10.7%; as for `CN(C)S(=O)(=O)c1ccc(N2CCCC2)c(C(=O)OCC(=O)NC2CCCCC2)c1`, 3.05%; as for `COc1ccc(NC(=O)c2cnc3sccn3c2=O)cc1`, 6.9%.

Take `Cc1ccc(N(CC(=O)N2CCCCCC2)S(=O)(=O)c2ccccc2)cc1`: the “hERG current change (%, negative = inhibition) at 1uM” value is 2.46%. In the case of `O=C(CN1C(=O)C2(OCCO2)c2ccccc21)c1ccc(F)cc1`, the “hERG current change (%, negative = inhibition) at 1uM” value turned out to be 4.79%. As for `Cc1ccc(S(=O)(=O)N2CCN(C)CC2)cc1C`, the figure is 10%; as for `COc1ccc2c(c1)-c1c(sn(-c3ccc(OC)c(OC)c3)c1=S)C(C)(C)N2`, 10.9%; as for `O=C(NCC1CCCN(C(=O)c2cccc(C(F)(F)F)c2)C1)c1ccc(F)cc1` (stereo not shown), 27.7%. As for `O=C(Cc1csc(NC(=O)c2ccc(F)cc2)n1)NO`, the figure is 9.93%; as for `COc1ccc(CNC(=O)C(C)n2nc(C)n3c(cc4occc43)c2=O)cc1` (stereo not shown), 8.35%; as for `CCN(CC)c1ccc(S(=O)(=O)N2CCCCC2)cc1NC(=O)C1=COCCO1`, 8.48%.

Turning to `N/C(Cn1cncn1)=N\NC(=O)C(=O)Nc1ccccc1`, the “hERG current change (%, negative = inhibition) at 1uM” value stood at 20.9%. The figure for `CCOC(=O)C1CCN(CC(=O)c2c(C)n(C)c3ccc(OC)cc23)CC1` is -10.1%.

For `O=C(OC1CCCCC1)c1cc2ccccc2oc1=O`, the “hERG current change (%, negative = inhibition) at 1uM” value stood at 1.7%.

As to `O=C1CC(c2nc3ccccc3[nH]2)CN1c1ccccc1` (stereo not shown), the “hERG current change (%, negative = inhibition) at 1uM” value is given as -0.133%.

With `CCN(CC)S(=O)(=O)c1ccc(N2CCCC2)c(NC(=O)C2CCCCC2)c1`, the “hERG current change (%, negative = inhibition) at 1uM” value stood at 6.9%.

Regarding `CC(C)(C)n1nnnc1C(c1cccs1)N1CCCC2(CCCCC2)C1` (stereo not shown), the “hERG current change (%, negative = inhibition) at 1uM” value came out at 7.74%. As for `O=C(O)c1ccc2c(c1)CCC2`, the “hERG current change (%, negative = inhibition) at 1uM” value is recorded as 5.09%. The figure for `COc1ccc(C2c3ccc4ccccc4c3Oc3ncn(Cc4ccco4)c(=N)c32)cc1OC` (stereo not shown) is 3.49%. Turning to `CCN(CC(=O)NC(C)C)Cc1nc2sc3c(c2c(=O)[nH]1)CCC3`, the “hERG current change (%, negative = inhibition) at 1uM” value is 7.51%. Take `CN(NC(=O)CN1C(=O)c2ccccc2C1=O)C1=NS(=O)(=O)c2ccccc21`: the “hERG current change (%, negative = inhibition) at 1uM” value was found to be 20.7%. The figure for `Cc1ccc(S(=O)(=O)N2CCN(C(=O)c3cc4c(s3)CCCC4)CC2)c(C)c1` is 8.36%; for `Cc1ccc(NC(=O)CNC(=O)c2ccc(Oc3ccccc3)cc2)nc1` it is 11.9%; for `O=C(CCCOc1ccccc1)OCn1nnc2ccccc2c1=O` it is 0.966%. Consider `COc1cc(C(C)=O)ccc1OCC(=O)Nc1ccc(Cl)c(S(=O)(=O)N2CCOCC2)c1`, for which the “hERG current change (%, negative = inhibition) at 1uM” value is on record as -0.129%. `CCOC(=O)CCCn1ccc2cc(S(=O)(=O)N3CCCC3)ccc21`: the “hERG current change (%, negative = inhibition) at 1uM” value was found to be 14.6%. As to `C=CC[n+]1ccn(-c2nc3ccccc3nc2[N-]S(=O)(=O)c2cccs2)c1`, the “hERG current change (%, negative = inhibition) at 1uM” value was found to be 12.5%. `O=C(O)CN(Cc1ccco1)S(=O)(=O)c1ccccc1`: the “hERG current change (%, negative = inhibition) at 1uM” value was found to be 5.89%.

For `CCOC(=O)N1CCN(c2ccc(C(F)(F)F)cn2)CC1`, the “hERG current change (%, negative = inhibition) at 1uM” value is 7.35%.

As for `CCOC(=O)c1ccccc1NC(=O)CN1C(=O)NC(C)(CCc2ccccc2)C1=O` (stereo not shown), the “hERG current change (%, negative = inhibition) at 1uM” value is -7.03%. `CCC(C)[C@H](NC(=O)C1CC(=O)N(c2ccc3c(c2)OCO3)C1)C(=O)NC1CCCCC1` (stereo partly shown): the “hERG current change (%, negative = inhibition) at 1uM” value amounted to 29.5%. As for `CCN(CC)C(=O)CSc1nc2[nH]ncc2c(=O)[nH]1`, the figure is -18.9%. The figure for `CO/N=C/c1cccn1-c1nccc(OC)c1C#N` is 13.3%; for `O=C(Nc1cccnc1)c1ccc([N+](=O)[O-])s1` it is -1.39%.

These data come from article PMC4336329 (PLoS ONE, 2015).
